Source: patent US9650358B2 (priority 2013, dated 2017)

Tests used:
[1] = test system: A431 cells; test: cells; details: Homo sapiens, A-431, 24 h, read-out: A431 viability EC50
[2] = test system: H929 cells; test: cells; details: Homo sapiens, NCI-H929, 24 h, read-out: H929 viability EC50

## O=C(Nc1cc(-c2ccc3ncn(CCc4cccc(F)c4)c3c2)c(Cl)cn1)[C@@H]1CCCNC1 [Example 18, (3R)—N-(5-chloro-4-{1-[2-(3-fluorophenyl)ethyl]-1H-benzimidazol-6-yl}pyridin-2-yl)piperidine-3-carboxamide]
[1]
  EC50: 19 nM
[2]
  EC50: 110 nM

## O=C(Nc1cc(-c2ccc3nnn(CCc4cccc(F)c4)c3c2)c(Cl)cn1)[C@@H]1CCCNC1 [Example 115, (3R)—N-(5-chloro-4-{1-[2-(3-fluorophenyl)ethyl]-1H-benzotriazol-6-yl}pyridin-2-yl)piperidine-3-carboxamide]
[1]
  EC50: 170 nM
[2]
  EC50: 250 nM

## COCCCN[C@H]1CC[C@H](Nc2cc(-c3ccc4ncn(Cc5cccc(F)c5)c4c3)c(Cl)cn2)CC1 [Example 245, trans-N-{5-chloro-4-[1-(3-fluorobenzyl)-1H-benzimidazol-6-yl]pyridin-2-yl}-N′-(3-methoxypropyl)cyclohexane-1,4-diamine]
[1]
  EC50: 31 nM
[2]
  EC50: 79 nM

## O=C1NC2CC(C(=O)Nc3cc(-c4ccc5ncn(Cc6cccc(F)c6)c5c4)c(Cl)cn3)CC2O1 (stereo not shown) [Example 204, N-{5-chloro-4-[1-(3-fluorobenzyl)-1H-benzimidazol-6-yl]pyridin-2-yl}-2-oxohexahydro-2H-cyclopenta[d][1,3]oxazole-5-carboxamide]
[1]
  EC50: 270 nM
[2]
  EC50: 56 nM

## CN1CC(C(=O)Nc2cc(-c3ccc4ncn(Cc5cccc(F)c5)c4c3)c(Cl)cn2)C1 [Example 192, N-{5-chloro-4-[1-(3-fluorobenzyl)-1H-benzimidazol-6-yl]pyridin-2-yl}-1-methylazetidine-3-carboxamide]
[1]
  EC50: 140 nM
[2]
  EC50: 96 nM

## C[C@H](c1cccc(F)c1)n1cnc2ccc(-c3cc(NC(=O)[C@@H]4CCCNC4)ncc3Cl)cc21 [Example 144, (3R)—N-(5-chloro-4-{1-[(1R)-1-(3-fluorophenyl)ethyl]-1H-benzimidazol-6-yl}pyridin-2-yl)piperidine-3-carboxamide]
[1]
  EC50: 6 nM
[2]
  EC50: 48 nM

## O=C(Nc1cc(-c2ccc3ncn(Cc4cccc(F)c4)c3c2)c(Cl)cn1)c1cn[nH]c1 [Example 208, N-{5-chloro-4-[1-(3-fluorobenzyl)-1H-benzimidazol-6-yl]pyridin-2-yl}-1H-pyrazole-4-carboxamide]
[1]
  EC50: 3500 nM
[2]
  EC50: 38 nM

## COCC(C)N[C@H]1CC[C@H](Nc2cc(-c3ccc4ncn(Cc5cccc(F)c5)c4c3)c(Cl)cn2)CC1 (relative stereo) [Example 237, trans-N-{5-chloro-4-[1-(3-fluorobenzyl)-1H-benzimidazol-6-yl]pyridin-2-yl}-N-(1-methoxypropan-2-yl)cyclohexane-1,4-diamine]
[1]
  EC50: 15 nM
[2]
  EC50: 75 nM

## CS(=O)(=O)N[C@H]1CC[C@H](Nc2cc(-c3ccc4ncn(Cc5cccc(F)c5)c4c3)c(Cl)cn2)CC1 [Example 28, N-[trans-4-({5-chloro-4-[1-(3-fluorobenzyl)-1H-benzimidazol-6-yl]pyridin-2-yl}amino)cyclohexyl]methanesulfonamide]
[1]
  EC50: 290 nM
[2]
  EC50: 170 nM

## N[C@H]1CC[C@H](Nc2cc(-c3ccc4ncn(Cc5cccc(F)c5)c4c3)c(Cl)cn2)CC1 [Example 8, trans-N-{5-chloro-4-[1-(3-fluorobenzyl)-1H-benzimidazol-6-yl]pyridin-2-yl}cyclohexane-1,4-diamine]
[1]
  EC50: 17 nM
[2]
  EC50: 120 nM

## Fc1cccc(Cn2cnc3ccc(-c4cc(NC5CC6(CCNC6)C5)ncc4Cl)cc32)c1 (stereo not shown) [Example 109, N-{5-chloro-4-[1-(3-fluorobenzyl)-1H-benzimidazol-6-yl]pyridin-2-yl}-6-azaspiro[3.4]octan-2-amine]
[1]
  EC50: 26 nM
[2]
  EC50: 95 nM

## O=C(Nc1cc(-c2ccc3ncn(Cc4ccc(F)cc4)c3c2)c(Cl)cn1)[C@@H]1CCCNC1 [Example 16, (3R)—N-{5-chloro-4-[1-(4-fluorobenzyl)-1H-benzimidazol-6-yl]pyridin-2-yl}piperidine-3-carboxamide]
[1]
  EC50: 25 nM
[2]
  EC50: 84 nM

## Fc1cccc(Cn2cnc3ccc(-c4cc(NC5CC6(CCCNC6)C5)ncc4Cl)cc32)c1 (stereo not shown) [Example 104, N-{5-chloro-4-[1-(3-fluorobenzyl)-1H-benzimidazol-6-yl]pyridin-2-yl}-6-azaspiro[3.5]nonan-2-amine]
[1]
  EC50: 29 nM
[2]
  EC50: 82 nM

## Fc1cccc(Cn2cnc3ccc(-c4cc(NC5CC6(CCNCC6)C5)ncc4Cl)cc32)c1 [Example 105, N-{5-chloro-4-[1-(3-fluorobenzyl)-1H-benzimidazol-6-yl]pyridin-2-yl}-7-azaspiro[3.5]nonan-2-amine]
[1]
  EC50: 15 nM
[2]
  EC50: 95 nM

## O=C(Nc1cc(-c2ccc3ncn(Cc4ccc(F)c(F)c4)c3c2)c(Cl)cn1)[C@@H]1CCCNC1 [Example 17, (3R)—N-{5-chloro-4-[1-(3,4-difluorobenzyl)-1H-benzimidazol-6-yl]pyridin-2-yl}piperidine-3-carboxamide]
[1]
  EC50: 9 nM
[2]
  EC50: 73 nM

## O=C(Nc1cc(-c2ccc3c(c2)N(Cc2cccc(F)c2)CC3)c(Cl)cn1)[C@@H]1CCCNC1 [Example 1, (3R)—N-{5-chloro-4-[1-(3-fluorobenzyl)-2,3-dihydro-1H-indol-6-yl]pyridin-2-yl}piperidine-3-carboxamide]
[1]
  EC50: 1600 nM
[2]
  EC50: 530 nM

## CN1CCC(CCNc2cc(-c3ccc4ncn(Cc5cccc(F)c5)c4c3)c(Cl)cn2)CC1 [Example 44, 5-chloro-4-[1-(3-fluorobenzyl)-1H-benzimidazol-6-yl]-N-[2-(1-methylpiperidin-4-yl)ethyl]pyridin-2-amine]
[1]
  EC50: 71 nM
[2]
  EC50: 260 nM
